Assay results taken from the supplement of paper PMC11148083.
Converted amounts (≈) assume the structure as drawn. “And” between values parts separate entries of the source, which are not always exact repeats. Equal entries are not always repeated. MIC of E. coli strains with or without a β-lactamase plasmid, in LB (broth microdilution, 22 h, 37 °C, OD600 below 0.2; fosfomycin by agar dilution); pBAD18 genes induced with arabinose where stated. Higher = less susceptible. No active / inactive call. Values are arithmetic means of replicate MICs, so they fall between dilution steps. Colistin is a mixture; one drawing stands for it.

Columns and labels:
Assay in all cases: Broth microdilution in LB (fosfomycin: agar dilution), 22 h at 37 °C; MIC = lowest dose with OD600 below 0.2.
Escherichia coli ECOR27 = tested on: Escherichia coli ECOR27
Escherichia coli J53 = tested on: Escherichia coli J53
Escherichia coli ECOR53 = tested on: Escherichia coli ECOR53
Escherichia coli ECOR61 = tested on: Escherichia coli ECOR61
[1] = tested on: Escherichia coli BW25113 (arabinose: 0.5% w/v)
Escherichia coli ECOR49 = tested on: Escherichia coli ECOR49
Escherichia coli ECOR47 = tested on: Escherichia coli ECOR47
Escherichia coli ECOR70 = tested on: Escherichia coli ECOR70
Escherichia coli ECOR01 = tested on: Escherichia coli ECOR01
Escherichia coli ECOR35 = tested on: Escherichia coli ECOR35
Escherichia coli ECOR42 = tested on: Escherichia coli ECOR42

CC[C@H]1OC(=O)[C@H](C)[C@@H](O[C@H]2C[C@@](C)(OC)[C@@H](O)[C@H](C)O2)[C@H](C)[C@@H](O[C@@H]2O[C@H](C)C[C@H](N(C)C)[C@H]2O)[C@](C)(O)C[C@@H](C)CN(C)[C@H](C)[C@@H](O)[C@]1(C)O [azithromycin]
Conditions	MIC
Escherichia coli ECOR01, plasmid: none	16 µg/mL (≈ 21.4 µM)
Escherichia coli ECOR01, plasmid: pUN4 empty	16 µg/mL (≈ 21.4 µM)
Escherichia coli ECOR01, plasmid: pUN4 with blaCTX-M-15	13.3 µg/mL (≈ 17.8 µM)
Escherichia coli ECOR01, plasmid: pUN4 with blaOXA-48	12 µg/mL (≈ 16 µM)
Escherichia coli ECOR27, plasmid: none	12 µg/mL (≈ 16 µM)
Escherichia coli ECOR27, plasmid: pUN4 empty	12 µg/mL (≈ 16 µM)
Escherichia coli ECOR27, plasmid: pUN4 with blaCTX-M-15	4.33 µg/mL (≈ 5.79 µM)
Escherichia coli ECOR27, plasmid: pUN4 with blaOXA-48	6.67 µg/mL (≈ 8.9 µM)
Escherichia coli ECOR35, plasmid: none	21.3 µg/mL (≈ 28.5 µM)
Escherichia coli ECOR35, plasmid: pUN4 empty	18.7 µg/mL (≈ 24.9 µM)
Escherichia coli ECOR35, plasmid: pUN4 with blaCTX-M-15	12 µg/mL (≈ 16 µM)
Escherichia coli ECOR35, plasmid: pUN4 with blaOXA-48	10.7 µg/mL (≈ 14.2 µM)
Escherichia coli ECOR42, plasmid: none	16 µg/mL (≈ 21.4 µM)
Escherichia coli ECOR42, plasmid: pUN4 empty	16 µg/mL (≈ 21.4 µM)
Escherichia coli ECOR42, plasmid: pUN4 with blaCTX-M-15	8 µg/mL (≈ 10.7 µM)
Escherichia coli ECOR42, plasmid: pUN4 with blaOXA-48	7 µg/mL (≈ 9.35 µM)
Escherichia coli ECOR47, plasmid: none	16 µg/mL (≈ 21.4 µM)
Escherichia coli ECOR47, plasmid: pUN4 empty	16 µg/mL (≈ 21.4 µM)
Escherichia coli ECOR47, plasmid: pUN4 with blaCTX-M-15	9.33 µg/mL (≈ 12.5 µM)
Escherichia coli ECOR47, plasmid: pUN4 with blaOXA-48	13.3 µg/mL (≈ 17.8 µM)
Escherichia coli ECOR49, plasmid: none	16 µg/mL (≈ 21.4 µM)
Escherichia coli ECOR49, plasmid: pUN4 empty	16 µg/mL (≈ 21.4 µM)
Escherichia coli ECOR49, plasmid: pUN4 with blaCTX-M-15	9.33 µg/mL (≈ 12.5 µM)
Escherichia coli ECOR49, plasmid: pUN4 with blaOXA-48	10.7 µg/mL (≈ 14.2 µM)
Escherichia coli ECOR53, plasmid: none	13.3 µg/mL (≈ 17.8 µM)
Escherichia coli ECOR53, plasmid: pUN4 empty	16 µg/mL (≈ 21.4 µM)
Escherichia coli ECOR53, plasmid: pUN4 with blaCTX-M-15	8 µg/mL (≈ 10.7 µM)
Escherichia coli ECOR53, plasmid: pUN4 with blaOXA-48	8 µg/mL (≈ 10.7 µM)
Escherichia coli ECOR61, plasmid: none	10.7 µg/mL (≈ 14.2 µM)
Escherichia coli ECOR61, plasmid: pUN4 empty	10.7 µg/mL (≈ 14.2 µM)
Escherichia coli ECOR61, plasmid: pUN4 with blaCTX-M-15	12 µg/mL (≈ 16 µM)
Escherichia coli ECOR61, plasmid: pUN4 with blaOXA-48	10 µg/mL (≈ 13.4 µM)
Escherichia coli ECOR70, plasmid: none	16 µg/mL (≈ 21.4 µM)
Escherichia coli ECOR70, plasmid: pUN4 empty	16 µg/mL (≈ 21.4 µM)
Escherichia coli ECOR70, plasmid: pUN4 with blaCTX-M-15	12 µg/mL (≈ 16 µM)
Escherichia coli ECOR70, plasmid: pUN4 with blaOXA-48	16 µg/mL (≈ 21.4 µM)
Escherichia coli J53, plasmid: none	18.7 µg/mL and 8.53 µg/mL
Escherichia coli J53, plasmid: pOXA-48 DEL (blaOXA-48 not expressed)	8.53 µg/mL (≈ 11.4 µM)
Escherichia coli J53, plasmid: pOXA-48 PV-B (blaOXA-48)	0.75 µg/mL (≈ 1 µM)
Escherichia coli J53, plasmid: pOXA-48 PV-D (blaOXA-48)	1.83 µg/mL (≈ 2.45 µM)
Escherichia coli J53, plasmid: pOXA-48 PV-E (blaOXA-48)	1.33 µg/mL (≈ 1.78 µM)
Escherichia coli J53, plasmid: pOXA-48 PV-K (blaOXA-48)	1.17 µg/mL (≈ 1.56 µM)
Escherichia coli J53, plasmid: pOXA-48 PV-O (blaOXA-48)	3.17 µg/mL (≈ 4.23 µM)
Escherichia coli J53, plasmid: pOXA-48 TET (blaOXA-48 replaced by tetC)	12 µg/mL (≈ 16 µM)
Escherichia coli J53, plasmid: pOXA-48 WT (blaOXA-48)	1.33 µg/mL (≈ 1.78 µM)
Escherichia coli J53, plasmid: pUN4 empty	18.7 µg/mL and 10.7 µg/mL
Escherichia coli J53, plasmid: pUN4 with blaCTX-M-15	10 µg/mL (≈ 13.4 µM)
Escherichia coli J53, plasmid: pUN4 with blaOXA-48	7.33 µg/mL and 5.78 µg/mL
Escherichia coli J53, plasmid: pUN4 with the DEL allele of blaOXA-48	8.89 µg/mL (≈ 11.9 µM)
[1], plasmid: none	12 µg/mL (≈ 16 µM)
[1], plasmid: pBAD18 empty	8 µg/mL (≈ 10.7 µM)
[1], plasmid: pBAD18 with blaCTX-M-14	4 µg/mL (≈ 5.34 µM)
[1], plasmid: pBAD18 with blaCTX-M-15	4 µg/mL (≈ 5.34 µM)
[1], plasmid: pBAD18 with blaKPC-2	4 µg/mL (≈ 5.34 µM)
[1], plasmid: pBAD18 with blaNDM-1	3.67 µg/mL (≈ 4.9 µM)
[1], plasmid: pBAD18 with blaOXA-1	4 µg/mL (≈ 5.34 µM)
[1], plasmid: pBAD18 with blaOXA-48	4 µg/mL (≈ 5.34 µM)
[1], plasmid: pBAD18 with blaTEM-1	4 µg/mL (≈ 5.34 µM)

C[C@H]1[C@H](NC(=O)/C(=N\OC(C)(C)C(=O)O)c2csc(N)n2)C(=O)N1S(=O)(=O)O [aztreonam]
[1]
Conditions	MIC [µg/mL]
plasmid: none	0.146 (≈ 0.335 µM)
plasmid: pBAD18 empty	0.146 (≈ 0.335 µM)
plasmid: pBAD18 with blaCTX-M-14	64 (≈ 147 µM)
plasmid: pBAD18 with blaCTX-M-15	32.1 (≈ 73.7 µM)
plasmid: pBAD18 with blaKPC-2	58.7 (≈ 135 µM)
plasmid: pBAD18 with blaNDM-1	0.146 (≈ 0.335 µM)
plasmid: pBAD18 with blaOXA-1	0.208 (≈ 0.478 µM)
plasmid: pBAD18 with blaOXA-48	0.188 (≈ 0.431 µM)
plasmid: pBAD18 with blaTEM-1	0.583 (≈ 1.34 µM)

CO/N=C(\C(=O)N[C@@H]1C(=O)N2C(C(=O)O)=C(COC(C)=O)CS[C@H]12)c1csc(N)n1 [cefotaxime]
Conditions	MIC [µg/mL]
Escherichia coli ECOR01, plasmid: none	0.12 (≈ 0.263 µM)
Escherichia coli ECOR01, plasmid: pUN4 empty	0.103 (≈ 0.227 µM)
Escherichia coli ECOR01, plasmid: pUN4 with blaCTX-M-15	64 (≈ 141 µM)
Escherichia coli ECOR01, plasmid: pUN4 with blaOXA-48	1.27 (≈ 2.8 µM)
Escherichia coli ECOR27, plasmid: none	0.12 (≈ 0.263 µM)
Escherichia coli ECOR27, plasmid: pUN4 empty	0.146 (≈ 0.32 µM)
Escherichia coli ECOR27, plasmid: pUN4 with blaCTX-M-15	64 (≈ 141 µM)
Escherichia coli ECOR27, plasmid: pUN4 with blaOXA-48	2 (≈ 4.39 µM)
Escherichia coli ECOR35, plasmid: none	0.103 (≈ 0.227 µM)
Escherichia coli ECOR35, plasmid: pUN4 empty	0.0925 (≈ 0.203 µM)
Escherichia coli ECOR35, plasmid: pUN4 with blaCTX-M-15	64 (≈ 141 µM)
Escherichia coli ECOR35, plasmid: pUN4 with blaOXA-48	0.517 (≈ 1.13 µM)
Escherichia coli ECOR42, plasmid: none	0.113 (≈ 0.249 µM)
Escherichia coli ECOR42, plasmid: pUN4 empty	0.125 (≈ 0.274 µM)
Escherichia coli ECOR42, plasmid: pUN4 with blaCTX-M-15	64 (≈ 141 µM)
Escherichia coli ECOR42, plasmid: pUN4 with blaOXA-48	0.5 (≈ 1.1 µM)
Escherichia coli ECOR47, plasmid: none	0.163 (≈ 0.359 µM)
Escherichia coli ECOR47, plasmid: pUN4 empty	0.146 (≈ 0.32 µM)
Escherichia coli ECOR47, plasmid: pUN4 with blaCTX-M-15	64 (≈ 141 µM)
Escherichia coli ECOR47, plasmid: pUN4 with blaOXA-48	2 (≈ 4.39 µM)
Escherichia coli ECOR49, plasmid: none	0.146 (≈ 0.32 µM)
Escherichia coli ECOR49, plasmid: pUN4 empty	0.135 (≈ 0.296 µM)
Escherichia coli ECOR49, plasmid: pUN4 with blaCTX-M-15	64 (≈ 141 µM)
Escherichia coli ECOR49, plasmid: pUN4 with blaOXA-48	0.5 (≈ 1.1 µM)
Escherichia coli ECOR53, plasmid: none	0.12 (≈ 0.263 µM)
Escherichia coli ECOR53, plasmid: pUN4 empty	0.146 (≈ 0.32 µM)
Escherichia coli ECOR53, plasmid: pUN4 with blaCTX-M-15	64 (≈ 141 µM)
Escherichia coli ECOR53, plasmid: pUN4 with blaOXA-48	2 (≈ 4.39 µM)
Escherichia coli ECOR61, plasmid: none	0.0708 (≈ 0.156 µM)
Escherichia coli ECOR61, plasmid: pUN4 empty	0.0983 (≈ 0.216 µM)
Escherichia coli ECOR61, plasmid: pUN4 with blaCTX-M-15	64 (≈ 141 µM)
Escherichia coli ECOR61, plasmid: pUN4 with blaOXA-48	0.0925 (≈ 0.203 µM)
Escherichia coli ECOR70, plasmid: none	0.125 (≈ 0.274 µM)
Escherichia coli ECOR70, plasmid: pUN4 empty	0.167 (≈ 0.366 µM)
Escherichia coli ECOR70, plasmid: pUN4 with blaCTX-M-15	64 (≈ 141 µM)
Escherichia coli ECOR70, plasmid: pUN4 with blaOXA-48	0.5 (≈ 1.1 µM)
Escherichia coli J53, plasmid: none	0.163 (≈ 0.359 µM)
Escherichia coli J53, plasmid: pUN4 empty	0.163 (≈ 0.359 µM)
Escherichia coli J53, plasmid: pUN4 with blaCTX-M-15	2 (≈ 4.39 µM)
Escherichia coli J53, plasmid: pUN4 with blaOXA-48	2 (≈ 4.39 µM)
[1], plasmid: none	0.125 (≈ 0.274 µM)
[1], plasmid: pBAD18 empty	0.125 (≈ 0.274 µM)
[1], plasmid: pBAD18 with blaCTX-M-14	512 (≈ 1120 µM)
[1], plasmid: pBAD18 with blaCTX-M-15	448 (≈ 984 µM)
[1], plasmid: pBAD18 with blaKPC-2	11 (≈ 24.2 µM)
[1], plasmid: pBAD18 with blaNDM-1	299 (≈ 656 µM)
[1], plasmid: pBAD18 with blaOXA-1	13.3 (≈ 29.3 µM)
[1], plasmid: pBAD18 with blaOXA-48	1.5 (≈ 3.29 µM)
[1], plasmid: pBAD18 with blaTEM-1	0.146 (≈ 0.32 µM)

O=C(N[C@H](CO)[C@H](O)c1ccc([N+](=O)[O-])cc1)C(Cl)Cl [chloramphenicol]
[1]
Conditions	MIC [µg/mL]
plasmid: none	5.33 (≈ 16.5 µM)
plasmid: pBAD18 empty	4 (≈ 12.4 µM)
plasmid: pBAD18 with blaCTX-M-14	4.67 (≈ 14.4 µM)
plasmid: pBAD18 with blaCTX-M-15	4 (≈ 12.4 µM)
plasmid: pBAD18 with blaKPC-2	4 (≈ 12.4 µM)
plasmid: pBAD18 with blaNDM-1	4.67 (≈ 14.4 µM)
plasmid: pBAD18 with blaOXA-1	4 (≈ 12.4 µM)
plasmid: pBAD18 with blaOXA-48	4 (≈ 12.4 µM)
plasmid: pBAD18 with blaTEM-1	4.67 (≈ 14.4 µM)

O=C(O)c1cn(C2CC2)c2cc(N3CCNCC3)c(F)cc2c1=O [ciprofloxacin]
[1]
Conditions	MIC [µg/mL]
plasmid: none	0.0225 (≈ 0.0679 µM)
plasmid: pBAD18 empty	0.02 (≈ 0.0604 µM)
plasmid: pBAD18 with blaCTX-M-14	0.0225 (≈ 0.0679 µM)
plasmid: pBAD18 with blaCTX-M-15	0.025 (≈ 0.0754 µM)
plasmid: pBAD18 with blaKPC-2	0.0225 (≈ 0.0679 µM)
plasmid: pBAD18 with blaNDM-1	0.015 (≈ 0.0453 µM)
plasmid: pBAD18 with blaOXA-1	0.0225 (≈ 0.0679 µM)
plasmid: pBAD18 with blaOXA-48	0.02 (≈ 0.0604 µM)
plasmid: pBAD18 with blaTEM-1	0.02 (≈ 0.0604 µM)
